# Some of the results follow. These are enrichments in a pooled selection; single values are uncertain.
# Test system: SARS-CoV-2 3CLpro (nsp5)
# Assay: substrate phage enrichment score (protease-eluted vs HEPES control, +1 offset) (ratio); higher = better cleaved substrate
# Conditions: selection round: 3; protease elution time: 0.5 h
# Protocol: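 Random heptapeptide substrate phage display (M13 pIII fusion, heptapeptide between an N-terminal biotinylated AviTag GLNDIFEAQKIEWHE and pIII; phages immobilised on streptavidin) eluted by cleavage with 50 nM protease in 20 mM HEPES at 37 °C. Selected phages were NGS sequenced, and the enrichment score is (reads in protease sample + 1)/(reads in HEPES blank-selection control + 1).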
row,Substance,substrate phage enrichment score
1,LSAAAHH,0.588
2,VSGQNLG,2.17
3,WRASYNE,> 23
4,SGQVRQC,1.94
5,PGAAHHH,0.971
6,HPAVLHR,21
7,PEAAHHH,1.03
8,RMTSALD,> 29
9,RVSAHHH,3.6
10,ETQSMFR,1.77
11,RCKSEGI,> 29
12,GSAAAQH,0.9
13,ENDVIHR,1.5
14,KGCCLQA,> 74
15,LTLEFSH,> 21
16,CRVCMHR,3.29
17,ECQIGCP,0.0769
18,LGNPVQP,> 23
19,QQPGDRD,4
20,PLTGDIR,> 52
21,NSMNTPC,> 39
22,LSNAGQT,5
23,QTLCCKW,1
24,ARHCAGC,0.5
25,EHGWAFC,8.33

row,Substance,substrate phage enrichment score
1,PACAASC,> 36
2,LNGNKRD,> 26
3,NGRSNQR,1.89
4,AVLQSGR,> 30
5,IKCETLQ,> 45
6,SAAAHNQ,0.769
7,RHVKAQA,> 26
8,VGRSTCL,1.38
9,CPLLHRQ,0.304
10,DCRPDPR,6
11,EASRNQK,1.25
12,RKQSTLQ,> 42
13,AYNLSGP,> 39
14,SAAAQQH,1.18
15,IAIRHSW,5
16,QRHSCML,0.85
17,GCAAAHH,0.915
18,SPGQATE,> 21
19,TGACPLR,> 32
20,PKSASSE,5
21,NGTRSRQ,1.88
22,SWDGVTE,> 21
23,CVLGETT,12.5
24,EVWIDET,> 35
25,LELHSQR,2.67

row,Substance,substrate phage enrichment score
1,GSQPDYY,3
2,TGRCHRQ,3.6
3,LTSPLTT,2
4,KGPQMSR,> 28
5,LKCMQKH,> 35
6,RDGSEAH,> 36
7,PGNGTLS,1.81
8,RRDSARL,> 28
9,RPTTVLR,> 25
10,SLLQSKQ,> 70
11,PKACLTT,9.29
12,QSAPKSW,> 27
13,GCTPGQL,> 23
14,PAVHMQG,4.5
15,SEHAAKY,> 22
16,LCSTACG,1
17,YPVNMQV,> 24
18,VTDFGLR,1.07
19,VEDQPGT,2
20,RTRGQFG,7.33
21,QRSGACR,8.67
22,SHRHGSR,> 26
23,LPRLRLQ,9.33
24,FSAAAHH,1.75
25,ARHVACG,10

row,Substance,substrate phage enrichment score
1,STLSILQ,> 22
2,TTLQSDR,> 22
3,TSGFENR,14
4,SAGAHHH,0.562
5,ETSSVPD,13
6,EPQVNGQ,4.6
7,YKAAHHH,16
8,GHREEAA,4.29
9,QVQNQRP,> 24
10,YRDPGRR,3.67
11,VRPHLII,1.8
12,PGRWTTG,> 21
13,SAAAQQQ,0.889
14,INDLADG,> 56
15,SHDSNLM,> 29
16,HLNPEPI,4.83
17,PSNTTAH,1.33
18,LKARSQH,3.4
19,SQPARDC,4
20,AQREQQM,6.25
21,SKAEERT,> 22
22,PHGMPHR,> 56
23,NSKTESD,0.421
24,AGCSVCA,7.6
25,SNPRELT,> 32

row,Substance,substrate phage enrichment score
1,ATNMYAP,> 29
2,GAAAQHH,0.833
3,TQLQGFQ,> 25
4,CKTKCAL,2.91
5,CVCRLFV,> 25
6,SAAAPHH,1.06
7,QENKLPG,> 25
8,LTLEHSN,7.33
9,VEAAHHH,1.17
10,ERHCRAY,> 34
11,HPGVEDG,15
12,CRWPVKS,6
13,NSQDARA,3.44
14,PANSTLQ,14.5
15,RASVRLT,> 44
16,TRRTTLQ,> 145
17,EHDLKPL,18
18,ELTNESN,3.09
19,VYNLKSN,> 43
20,QGHHVSC,> 80
21,TTTHMNL,7.67
22,GQPCIYS,2.25
23,ITSPAGM,3.12
24,LNKLQSN,> 21
25,ASESSLQ,9.43

row,Substance,substrate phage enrichment score
1,KPRIEQE,> 30
2,TADNPPE,> 27
3,AAHHHHH,0.777
4,VLYFQGG,2.22
5,CGVRTGG,2
6,THNERGR,11.2
7,CRTYMTT,1.17
8,MRRPIAQ,1.89
9,LPGNQRG,> 69
10,PTTNSMQ,> 24
11,CSYDGRQ,> 27
12,VTLQAGI,> 22
13,NTITVMG,1
14,AKSWDGS,9.33
15,SNIKAQC,10.5
16,EVHVMCN,> 28
17,ARVRLQS,32.7
18,MPLRAAQ,1.3
19,AQAAHHH,1.44
20,NEPITFR,> 25
21,PASPVLQ,> 207
22,NNCVNDR,> 21
23,LQGGASG,> 23
24,NELTLDP,6.2
25,SEQVTLQ,> 104

row,Substance,substrate phage enrichment score
1,KESDKET,> 22
2,HKPFGSR,0.733
3,ISKLQSG,> 42
4,FHHHHGA,2.12
5,GNCHKET,1.15
6,FRESEEN,6.6
7,SRQYFQG,> 24
8,HEAAHHH,0.921
9,SCTRWSC,> 24
10,VTPRCLK,0.421
11,AQGNAVC,0.923
12,TSAHHHH,0.812
13,EGAHAPW,1.85
14,SCNGIGS,10.5
15,RLAAHHH,2.83
16,PIERFDT,0.5
17,SVAAHHH,1.05
18,SQRSLAP,3.83
19,THRGNLD,6.33
20,VVHESLS,> 30
21,AHLKSHN,> 22
22,VTISRQG,> 31
23,RTGLNTS,8
24,APVRLQS,101
25,HNHHHGA,0.714

row,Substance,substrate phage enrichment score
1,NVQLQAS,> 84
2,PSYELKA,> 29
3,ANAAAHH,0.304
4,QRCNAAA,> 23
5,DHVTILQ,21.5
6,QHNNLSR,16
7,PRMYTNP,0.696
8,SLNVLSR,3.53
9,PYSWQQR,0.909
10,TQDGGGT,> 28
11,HCGPVVN,2.47
12,AERNTIC,> 45
13,QTFCRSR,> 54
14,LCRDRCM,5.25
15,AHESGAI,7.67
16,LSRQNTR,> 29
17,RHVSKAG,17.5
18,TCIMQSQ,> 26
19,VQVRLQS,> 38
20,HEPTLPT,> 35
21,LYFQGGS,1.56
22,ETDGISN,1.64
23,PMAAHHH,1.1
24,GNRTKLQ,> 26
25,SPTWVEP,> 25

row,Substance,substrate phage enrichment score
1,LPKTCEN,5.25
2,QLYFQGG,1.05
3,ACSYLIP,> 28
4,FAAAHHH,0.971
5,LNTRPNH,> 22
6,PTPLLSG,> 38
7,SYETNRN,3.36
8,TYTSGSN,> 40
9,ACTLNRG,1.44
10,SCAPTRE,> 25
11,KPVQLQS,56.5
12,CAAAHQH,0.715
13,MPAAHHH,1.18
14,SAAPQHH,2
15,PKRGKTM,1.6
16,DAHDDYR,2.88
17,KEQAGKI,7.67
18,ICHSELQ,> 22
19,EIRGFYD,2.15
20,LRNWHST,1.44
21,GRTSQLQ,> 43
22,APAGSRT,2.22
23,SHVGSCR,> 23
24,SCILQAR,12.7
25,CYSPYEW,13.5

row,Substance,substrate phage enrichment score
1,NRAGQYG,1.77
2,VLREPVG,2.29
3,CQPNMFM,14
4,ERSPALG,1.27
5,LNGTINR,1.8
6,KELTAGT,4.38
7,RTAAHHH,0.942
8,SAAAHYH,1.6
9,DYRPSKT,12
10,PRSVNDS,0.833
11,VRHDVIV,4.5
12,RLQSGNR,> 55
13,CSAAHHH,0.759
14,ISEPQAW,1.24
15,SEEGVLY,0.5
16,DSWQLRN,> 34
17,EAKCAFG,> 42
18,PALQSGS,> 53
19,YQKSTLQ,65.2
20,PSIPLNP,6.77
21,VGMQGRC,3.67
22,QPIMRWP,11
23,ATRALLQ,> 173
24,PNLQGGS,3.33
25,SRAHCAR,> 21

row,Substance,substrate phage enrichment score
1,CPSQKHH,7
2,YLREPER,> 36
3,RCTVLQS,8
4,WPMCFPP,> 21
5,RPHIIIT,1.29
6,GISQGAL,> 160
7,NTWQDFT,7.75
8,RSAAAHH,0.763
9,AMSESQC,> 23
10,FSKPATV,> 25
11,QGYEPVQ,6
12,CFYPELQ,> 29
13,LQSRTDT,> 26
14,VQYFQGG,1.7
15,KKNYNEQ,1.23
16,PYCCARN,1.3
17,SKSSYMG,3.17
18,TWMTQLQ,> 21
19,PSAHHHH,0.474
20,DSAAHHH,0.359
21,AWHESGT,1.88
22,AKRDTEI,> 28
23,KRQYLQP,> 21
24,RASKIGI,> 23
25,AHAGWHK,0.692

row,Substance,substrate phage enrichment score
1,KAAAHHH,1.47
2,CRQQARS,> 23
3,STCGPKG,> 25
4,VPRDLRQ,1.95
5,SDTRMNR,13
6,NELTPAK,> 23
7,VMMIVCG,0.467
8,WRQPSQR,1.18
9,QRNQWYQ,11
10,LNYYKRD,1.55
11,ASGTGVS,> 29
12,AEQQRLQ,2.44
13,WQYNTYG,2.24
14,RCYSTLQ,> 74
15,WPAAHHH,2.21
16,SRPHIII,0.571
17,RVSIRCR,> 23
18,ERKPCGL,0.16
19,TDCPPGK,1.75
20,PHFQGGS,1.69
21,HHHHHGA,0.479
22,KGCLLTR,> 33
23,IRPVCEK,> 32
24,DGARRDG,1.07
25,YLIQCEQ,> 21

row,Substance,substrate phage enrichment score
1,CGAGQSP,> 30
2,RSAAHHH,1.02
3,LSPPKCA,> 25
4,GLRYLGA,1.89
5,VRNTSKV,1.76
6,LLRPTSG,> 21
7,VTNPSFQ,3.62
8,LCFQGGS,0.769
9,RSRLITN,11
10,IRAAHHH,0.864
11,TGVVPRA,10
12,PEHSMLQ,> 83
13,QDARHCR,7.67
14,PDEGTDL,> 26
15,TEHNGTR,> 30
16,PATILMS,> 65
17,AKAAHHH,1.27
18,TCLQSCV,40.1
19,RQSFEQR,5
20,PSGAAHH,3.1
21,FQGGSAA,1.33
22,PRSVHLQ,33
23,RACRLLR,1.6
24,VQPILDR,5.75
25,LTADTAV,3.83

row,Substance,substrate phage enrichment score
1,TNELSVQ,> 28
2,RGGSAAA,1.3
3,CAAAPHH,1.05
4,VGRPCST,2.67
5,PMHPVQH,0.0652
6,TADTGTR,18.5
7,VTAAHHH,1.18
8,IATPMPD,1.5
9,KRGSAAA,46.5
10,LPRESGG,27
11,QKKRTPV,> 40
12,PAGCAST,1
13,KAAARLQ,> 24
14,NPRSTAP,2.67
15,QGEIDSH,> 23
16,HTSGQRF,2.29
17,ALSLCPS,30.5
18,QVSELTG,> 39
19,RTRLQGQ,> 28
20,ELRQGYN,8
21,GRSTRLQ,13
22,KRTSPAR,1.42
23,TEQEFFQ,12
24,EPSRNRT,> 48
25,ELSEHRQ,> 70

row,Substance,substrate phage enrichment score
1,STRCMLQ,> 21
2,LKSAQLQ,> 25
3,ISAAAHH,1.12
4,AAVSILH,> 117
5,RCQGRIR,> 30
6,DLKSMPQ,> 23
7,VPRSRIG,> 30
8,QPAGSAA,> 41
9,EYLMGPS,0.923
10,SAAAYHH,1.52
11,RQPSCLH,> 22
12,LNNNPGR,0.261
13,RQNKLKP,> 25
14,ITPQENA,> 26
15,HGSTHAV,2.88
16,NRLSGVK,> 22
17,CVLLQSH,> 87

# From the supplement of paper PMC10185492
